The whole screen tested about 310,000 compounds, of which about 14,000 (4.5%) showed an effect of 50% or more. The effect is printed as a negative number. The list shows a part of the results.
The compounds below were run against human ether-à-go-go-related gene (hERG) potassium channel (human, UniProt Q12809) (assay: primary screen, population patch clamp on CHO cells stably expressing hERG).
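Note: peak tail current of the secondary pulse compared with the same well before compound.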

Sequence of human ether-à-go-go-related gene (hERG) potassium channel (Q12809 whole entry, looked up): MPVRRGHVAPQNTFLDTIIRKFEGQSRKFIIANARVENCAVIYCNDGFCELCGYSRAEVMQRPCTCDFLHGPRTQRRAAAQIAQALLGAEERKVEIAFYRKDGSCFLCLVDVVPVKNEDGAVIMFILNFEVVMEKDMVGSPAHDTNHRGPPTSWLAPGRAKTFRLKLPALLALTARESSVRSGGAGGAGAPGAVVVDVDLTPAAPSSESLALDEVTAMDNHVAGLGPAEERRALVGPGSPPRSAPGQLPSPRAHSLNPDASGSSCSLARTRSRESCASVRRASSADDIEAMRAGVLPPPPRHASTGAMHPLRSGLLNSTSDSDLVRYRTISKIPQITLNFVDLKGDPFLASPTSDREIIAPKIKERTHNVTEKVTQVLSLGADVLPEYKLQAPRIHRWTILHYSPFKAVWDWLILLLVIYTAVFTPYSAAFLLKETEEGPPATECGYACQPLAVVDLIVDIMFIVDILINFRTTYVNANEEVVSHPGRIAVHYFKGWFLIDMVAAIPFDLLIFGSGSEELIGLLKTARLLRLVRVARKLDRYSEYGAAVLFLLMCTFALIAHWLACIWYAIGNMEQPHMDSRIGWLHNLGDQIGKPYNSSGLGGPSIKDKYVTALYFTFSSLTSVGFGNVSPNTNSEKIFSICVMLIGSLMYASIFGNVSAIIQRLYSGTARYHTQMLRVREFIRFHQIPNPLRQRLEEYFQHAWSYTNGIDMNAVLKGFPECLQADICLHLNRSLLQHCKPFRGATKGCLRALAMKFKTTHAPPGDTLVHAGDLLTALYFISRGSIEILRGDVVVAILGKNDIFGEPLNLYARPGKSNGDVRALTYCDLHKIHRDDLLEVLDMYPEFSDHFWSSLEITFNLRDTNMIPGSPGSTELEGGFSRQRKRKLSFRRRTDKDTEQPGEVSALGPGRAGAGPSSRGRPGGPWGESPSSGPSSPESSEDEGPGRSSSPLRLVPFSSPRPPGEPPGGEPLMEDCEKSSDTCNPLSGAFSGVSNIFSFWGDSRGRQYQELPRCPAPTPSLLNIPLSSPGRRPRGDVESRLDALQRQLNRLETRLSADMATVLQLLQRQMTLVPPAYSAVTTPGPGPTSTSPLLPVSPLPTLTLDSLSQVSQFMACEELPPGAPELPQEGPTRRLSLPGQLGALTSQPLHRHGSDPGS

Compound	hERG current change (%, negative = inhibition) at 10uM
C1COCCO1.N#C/C(=C(/O)C(Cl)c1ccccc1)c1nc2ccccc2s1 (centres unmarked)	-0.386%
CCN(CCCNS(=O)(=O)c1cc(-c2cc(C)no2)ccc1C)Cc1ccccc1	-61.3%
CN(CC(=O)Nc1ccc(F)cc1)C(=O)COC(=O)C1=COCCO1	-20%
CC1(C)Cc2nc3oc4c(N5CCOCC5)ncnc4c3cc2CO1	-9.23%
Cc1ccc(-n2c(SCC(=O)Nc3ccc(N4CCOCC4)cc3)nc3ccccc3c2=O)cc1	6.08%
COc1ccc(/C=N/Nc2snc(SC)c2C#N)cc1OC	-2.63%
O=C(CCCOc1ccc(Cl)cc1)NCCc1ccccc1	5.77%
COc1ccc2c(c1)CC/C(=C\C=C\c1ccccc1OC)C2=O	8.8%
CNC(=O)c1ccc(CNC(=O)OCc2ccccc2)cc1	21.4%
CC1CCCC(C)N1CC(O)COC1CCC(C(C)(C)C)CC1.Cl (centres unmarked)	-14.8%
O=C(NCc1ccco1)/C(=C/c1ccccc1F)NC(=O)c1ccccc1	17.3%
CCOC(=O)c1ccc(NC(=O)CSc2nc(N3CCOCC3)nc(N3CCOCC3)n2)cc1	11.1%
CC(=O)c1cccc(S(=O)(=O)NC2CC2)c1	0.903%
CCN(CC)S(=O)(=O)c1ccc(NC(=O)COC(=O)c2ccc(Br)o2)cc1	-24.4%
CNC(=O)c1ncnnc1N(C)C(=O)NCc1ccccc1	-0.0696%
COCCCn1c(=O)/c(=C\c2ccccc2OC(C)C)s/c1=C(/C#N)C(=O)Nc1ccc(C(=O)O)cc1	4.48%
c1ccc(-c2csc3ncnc(NCC4COc5ccccc5O4)c23)cc1 (centres unmarked)	6.54%
CCCCn1c(N)c(N(CC(C)C)C(=O)C2CC(=O)N(c3ccc(CC)cc3)C2)c(=O)[nH]c1=O (centres unmarked)	18.8%
Cn1c(=O)c(C#N)c(-c2ccc(F)cc2)c2cc(C(=O)c3cc(Cl)cc(Cl)c3O)cnc21	56.6%

Compound	hERG current change (%, negative = inhibition) at 10uM
Cc1cccc(OCC(=O)Nc2ccc(CN3CCOCC3)cc2)c1C	-8.28%
Cc1ccc2nc(NC(=O)Cn3cc4c(n3)CCCCC4)sc2c1	-26.2%
O=C(Nc1ccc(S(=O)(=O)NCc2ccco2)cc1)C1CCCCC1	12.3%
CCOC(=O)/C=c1\s/c(=C\c2ccc3c(c2)OCCO3)c(=O)n1CC(=O)NCC1CCCO1 (centres unmarked)	19.5%
CC1CCN(CC(=O)N2CCN(c3ccccc3)CC2)CC1	-4.24%
O=c1c2ccccc2nc(-c2ccco2)n1CCc1ccc(O)cc1	7.91%
Cc1ccc(-c2[nH]c(-c3ccc(Cl)cc3)nc2SCC(=O)NCC2CCCO2)cc1 (centres unmarked)	9.82%
Cc1ccccc1NC(=O)CSc1nc2scc(C)c2c(=O)[nH]1	15.3%
CC(C)(C)n1ncc2c(=O)n(CC(=O)c3ccc(Cl)cc3)cnc21	7.58%
COc1ccc(F)cc1CN1CCN(C(=O)CCC(=O)Nc2nnc(CC(C)C)s2)CC1	-11.5%
COC(=O)c1cc(NC(=O)CC2CCCC2)cc(C(=O)OC)c1	1.79%
CCC1Oc2ccc(C)cc2N(CC(=O)N2CCN(c3ccc(F)cc3)CC2)C1=O (centres unmarked)	-54.1%
CCCCNC(=O)c1onc(CSc2ccccc2)c1C(=O)O	8.54%
Cc1nn(C(CC(=O)O)C(=O)O)c(C)c1Br (centres unmarked)	19.3%
Cc1ccc(NC(=O)c2cc(F)c(F)cc2Cl)nc1	16.5%
CCCN(CCC)C(=O)Cn1c(=O)n(CCCC(=O)NCc2ccco2)c(=O)c2sccc21	-11.7%
O=C(CSc1ncnc2c1nnn2Cc1ccc(F)cc1)NC1CCCC1	8.71%
COC(=O)CN(c1ccccc1[N+](=O)[O-])S(=O)(=O)c1ccccc1	-19.3%
Cc1c(Cl)cccc1NC(=O)CNC(=O)CCS(=O)(=O)c1ccc(F)cc1	-6.31%

Compound	hERG current change (%, negative = inhibition) at 10uM
CSc1cccc(NCc2ccc([N+](=O)[O-])cc2)c1	-10.7%
COCc1cc(=O)[nH]c(Cc2c(Cl)cccc2Cl)n1	8.51%
Cl.O=C(O)C1NCCc2ccccc21 (centres unmarked)	-14.2%
CNC(=O)/C(C#N)=C/c1ccc(OCCOc2ccccc2)cc1	22.8%
COc1ccc(OC)c(CN2CCN(Cc3cc(OC)c(OC)c(OC)c3)CC2)c1	9.45%
CCOC(=O)c1cc(-c2ccccc2)sc1N	0.819%
COc1cc(OC)cc(C(=O)Nc2cc(-c3cn4cccnc4n3)ccc2C)c1	15.9%
Cc1ccc(-c2noc(N=O)c2NO)cc1	6.74%
CCOC(=O)C(=CNNc1cccc(Cl)c1)C(=O)OCC	15.5%
Cn1c(CCNC(=O)c2ccc(F)cc2)nc2ccccc21	-29.4%
COc1ccc(C2CC(c3cccs3)=NN2C(=O)CSc2nc(=O)n3cc(C)ccc3n2)cc1 (centres unmarked)	-64.8%
Cc1c(C)c2ccc(OC3CCCCC3=O)cc2oc1=O (centres unmarked)	10.9%
CCOC(=O)Nc1ccc(NC(=O)c2ccccc2F)cc1	7.89%
COc1ccccc1C(=O)OCCN=C1NS(=O)(=O)c2ccccc21	-1.89%
COc1ccc(C(CNC(=O)c2ccc(S(=O)(=O)N3CCCC3)cc2)N2CCOCC2)cc1 (centres unmarked)	-1.39%
Cc1nc2scc(C)n2c(=O)c1S(=O)(=O)NC(C)c1ccccc1 (centres unmarked)	6.37%
CCc1ccc(OCC(=O)O/N=C(\N)c2ccncc2)cc1	4.92%
O=C(NCCc1ccc(C(F)(F)F)cc1)c1ccc2c(c1)OCO2	6.54%
